Test results taken from PubChem BioAssay AID1347044 (National Center for Advancing Translational Sciences (NCATS), 2019).
This is one part of the list. Shown are side measurements of this screen, not its main read-out; they come without a call. The list favours compounds with an active or inconclusive main result. Potencies come from curve fits of mixed quality, noted in brackets.

Assay: Natriuretic polypeptide receptor (hNpr1) antagonism - Confirmation; also: nearly all actives have a fitted effect of over 70% in size
Settings: HEK293 hNpr1 cGMP GloSensor luminescence, ANP-stimulated; measured here: HEK-hNpr1 cytotoxicity, CellTiter-Glo
Summary of the method: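 HEK293 cells expressing hNpr1 and the pGS-40F GloSensor cGMP sensor, loaded with 2% GloSensor reagent for 2 h, then treated 30 min with compound at room temperature. Luciferase luminescence read before and 20 min after 0.1 nM hNppA stimulation.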
Tags tell the direction and shape of the fitted curve.

SMILES	CC50
COc1ccccc1CC(=O)N1CCN(C(=O)c2nnn3c2COC(c2ccc(C)cc2)C3)CC1 (configuration not stated)	19.3 µM [falling, partial curve]
CC(=O)N1CCC(Cc2ccc(C(=O)NC3CCN(Cc4ccccc4)CC3)cc2)CC1	21.7 µM [falling, partial curve]
Cc1cc(C(=O)NC(C)c2cnc(N3CCCCCCC3)nc2C)n[nH]1 (configuration not stated)	30.6 µM [falling, single point]
OC1(Cc2cc(-c3ccccc3)no2)CCN(c2ncncn2)CC1	17.2 µM [falling, partial curve]
Cc1ccc2c(c1)nc1n2[C@@H](CNS(=O)(=O)c2ccccc2)COC1	35.3 µM [falling, partial curve]
CCOc1ccccc1C(=O)N1CCC(n2cc(-c3nc(-c4ccccc4)no3)nn2)CC1	24.3 µM [falling, partial curve]
O=C(NC1CCCCCCC1)c1nnn2c1COC(c1ccc(F)cc1)C2 (configuration not stated)	24.3 µM [falling, partial curve, poor fit]
Cc1ccc(SCCN(C)c2cc(C3CC(O)C3)nc(N)n2)cc1 (configuration not stated)	30.6 µM [falling, single point]
C[S+](=O)([O-])CCn1ncc2cc(OCC3CCN(C(=O)OC4CCCC4)CC3)ccc21	15.3 µM [falling, partial curve]
COCCN1C(=O)CO[C@H]2CN(CCCc3ccccc3)C[C@H]21	22.2 µM [falling, partial curve]
COc1ccccc1CC(=O)N1CCC(Cc2nc(-c3ccc(F)cc3)no2)CC1	3.43 µM [falling, full curve]
COc1ccc(CN2CCc3nc(C(=O)Nc4ccc(Cl)cc4)oc3CC2)cc1OC	17.2 µM [falling, partial curve]
COc1ccc(-n2nc(C)c([C@@H]3C=C[C@@H](NS(=O)(=O)c4cccs4)C3)c2C)cc1	31.4 µM [falling, partial curve]
Cc1nn2c(c1-c1ccccc1Oc1ccccc1)N(Cc1cccc(O)c1)CCC2	62.7 µM [falling, single point]
O=C(c1cccc2[nH]ccc12)N1CCC2(CC1)N=C(c1ccc(Cl)cc1)NO2	21.7 µM [falling, partial curve]
O=C(c1ccc(F)cc1Cl)N1CCC(Cc2nc(-c3ccccc3)no2)CC1	6.11 µM [falling, full curve]
O=C(Nc1ccc(Oc2ccccc2)cc1)O[C@@H]1CO[C@H]2[C@@H]1OC[C@@H]2NC(=S)Nc1ccccc1	15.3 µM [falling, partial curve]
COc1ccc(C(=O)N2CCC(Cc3nc(-c4ccc(F)cc4)no3)CC2)c(OC)n1	5.44 µM [falling, full curve]
OC1CC(c2cc(NCCOCc3ccc(Cl)cc3)ncn2)C1 (configuration not stated)	19.3 µM [falling, partial curve]
O=C(C1CCC1)N1CCC(n2cc(-c3nc(-c4ccccc4)no3)nn2)CC1	24.3 µM [falling, partial curve]
O=C1N(C2CCCCC2)C[C@H]2CN(Cc3ccc(C(F)(F)F)cc3)CCN12	15.7 µM [falling, partial curve]

SMILES	CC50
Clc1cccc(CN2CC[C@H](c3nc4ccccc4[nH]3)C2)c1	35.3 µM [falling, partial curve]
CCN(CC)C(=O)N1CC(Oc2ccc(-c3noc(COC)n3)cc2)C1	13.7 µM [falling, partial curve]
Cn1nccc1CN1CCn2c(nn(-c3ccc(C(F)(F)F)cc3)c2=O)C1	30.6 µM [falling, single point]
Cc1cccc(N2CCN(C(=O)CC3CCCCN(Cc4ccccc4)C3=O)CC2)c1 (configuration not stated)	21.7 µM [falling, partial curve]
O=C(CN1C(=O)NC(c2ccc(Cl)cc2)C2=C1COC2=O)Nc1ccc(Br)cc1F (configuration not stated)	27.3 µM [falling, single point]
Cc1ccccc1-c1cnc2[nH]cc(CC(=O)NCc3cccnc3)c2c1	28 µM [falling, partial curve]
COc1ccc(-c2noc(CC3CCN(C(=O)c4ccc(OC)nc4)CC3)n2)cc1	8.62 µM [falling, partial curve]
COc1ccc(-c2noc(COC(=O)C3=CN(C)S(=O)(=O)N=C3C)n2)cc1	17.2 µM [falling, partial curve]
COc1ccccc1CN1CCc2nc(C(=O)Nc3ccc(Cl)cc3)oc2CC1	25 µM [falling, partial curve]
CC(C)c1ccc(NC(=O)C2CCN(c3cc(C(F)(F)F)ncn3)CC2)cc1	15.3 µM [falling, partial curve]
CCN(CC)C(=O)N1CC(Oc2ccc(-c3nc(C)no3)cc2)C1	21.7 µM [falling, partial curve, poor fit]
N#Cc1cccnc1N1CCC(NC(=O)c2ccc3nccn3c2)CC1	19.3 µM [falling, partial curve]
C[S+](=O)([O-])CCn1ncc2cc(OCc3cccc(-c4ccc(Cl)cc4)c3)ccc21	31.4 µM [falling, partial curve, poor fit]
O=C(c1cccc(F)c1)N1CCC(Cc2nc(-c3ccccc3)no2)CC1	15.3 µM [falling, partial curve]
Cc1nc(N2CCC(C(=O)NC3CCCCCC3)CC2)cc(C(F)(F)F)n1	13.7 µM [falling, partial curve]
COc1ccc(C2=NOC3(CCN([S+](=O)([O-])c4cccc(C(F)(F)F)c4)C3)C2)cc1 (configuration not stated)	30.6 µM [falling, single point]
OC1CC(c2cc(N3CCC(Cc4noc(C5CC5)n4)CC3)ncn2)C1 (configuration not stated)	0.968 µM [falling, full curve]
CN(C)c1ccc(C(=O)NCC2CCN(c3cc(-c4ccc(Cl)cc4)[nH]n3)CC2)cc1	19.3 µM [falling, partial curve]
O=C(C1COc2ccccc2O1)N1CCN(c2cc(-c3ccc(Cl)cc3)[nH]n2)CC1 (configuration not stated)	24.3 µM [falling, partial curve]
CCCc1ccc(S(=O)(=O)N(C)CC2CCOCC2)cc1	27.3 µM [falling, single point]
CN1CCN(Cc2ccc(Nc3cnc4ccc(-c5ccccc5)nn34)cc2)CC1	25 µM [falling, partial curve]

SMILES	CC50
COc1ccc(-c2noc(CC3CCN(C(=O)c4cc(Cl)ccc4F)CC3)n2)cc1	17.2 µM [falling, partial curve]
COc1ccc(CC(=O)NC2CCN(c3cc(-c4ccc(Cl)cc4)[nH]n3)CC2)cc1OC	24.3 µM [falling, partial curve]
COc1cccc(CNC(=O)C2CCN(c3cc(C(F)(F)F)ncn3)CC2)c1	21.7 µM [falling, partial curve]
O=C(c1cccs1)N1CCC2(CC1)CC(Cc1ccc(F)cc1)CCO2 (configuration not stated)	24.3 µM [falling, partial curve]
O=C(c1cccc(Cl)c1)N1CCCC(n2cc(-c3nc(-c4ccccc4)no3)nn2)C1 (configuration not stated)	24.3 µM [falling, partial curve]
Cc1ccccc1OCC(=O)NC1CCN(c2cc(-c3ccccc3)[nH]n2)CC1	24.3 µM [falling, partial curve]
COc1cccc(-c2cc(C3CCN(S(=O)(=O)c4ccc(C(C)=O)cc4)CC3)[nH]n2)c1	24.3 µM [falling, partial curve]
O=C(Nc1ccccc1)c1cnc2c(c1)N(C(=O)Cc1ccc(O)cc1)CCC2	35.3 µM [falling, partial curve]
Cc1ccsc1C(=O)N1CCC2(CC1)N=C(c1cccc(Br)c1)NO2	21.7 µM [falling, partial curve]
CC1=NS(=O)(=O)N(C)C=C1C(=O)OCc1nc(-c2ccccc2F)no1	43.2 µM [falling, single point]
CC1=C[C@@H](CNC(=O)C2CC2)[C@H](C(C)C)C[C@H]1Cc1nc2ccccc2n1C	35.3 µM [falling, partial curve]
O=C(NCc1ccccc1)c1nc2c(o1)CCN(Cc1ccc(F)cc1)CC2	35.3 µM [falling, partial curve]
O=C1OCC2=C1C(c1ccc(Cl)cc1)NC(=O)N2CC(=O)N1CCC(Cc2ccccc2)CC1 (configuration not stated)	21.7 µM [falling, partial curve]
CC(C)c1noc(-c2cn(C3CCN(C(=O)c4ccc(F)cc4Cl)C3)nn2)n1 (configuration not stated)	21.7 µM [falling, partial curve]
COc1ccc(C2Cn3nnc(C(=O)NC4CCCCCCC4)c3CO2)cc1 (configuration not stated)	24.3 µM [falling, partial curve]
Cc1nn2c(c1-c1ccccc1-c1ccccc1)N(Cc1ccc(O)cc1)CCC2	62.7 µM [falling, single point]
O=C(NCc1ccccc1)c1nc2c(o1)CCN(Cc1ccc(F)c(Cl)c1)CC2	31.4 µM [falling, partial curve]
Cc1cc(OCCN2CCOCC2)c(C)c2c1CC[C@@H]([C@H](C)C(=O)N1CCCCC1)C2	31.4 µM [falling, partial curve]
COCc1nc(-c2ccc(OC3CCN(C(=O)c4nn(C)c5ccccc45)C3)cc2)no1 (configuration not stated)	21.7 µM [falling, partial curve]
O=C(NC1CCCCC1)N1CCC(c2noc(-c3ccccc3)n2)C1 (configuration not stated)	30.6 µM [falling, single point]
